The other results are listed elsewhere or left out. At the low end of the ranking the order means little.

This assay addresses GST-SBP-SLBP (stem-loop binding protein) (UniProt Q14493). Briefly: targeted RNA Bind-n-Seq.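 Further: DESeq read counts versus GST-SBP nonspecific binding control pulldown.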 The settings on record: RBNS binding buffer: 25 mM Tris pH 7.5, 150 mM KCl, 3 mM MgCl2, 0.1% Tween, 0.5 mg/mL BSA, 1 mM DTT; 27 nM protein, 750 pM RNA pool; temperature not stated; high values mean tight binding.
In the case of “GGUCACGUCUCAAUCAACUCCCCAGAGGGGGGGAAAACCCCUUUACCCUCCACAUCAACAGCUCGCAGUCAAG”, the binding signal (log2 fold change) came to 0.235. As for “GGUCACGUCUCAAUCAACUCUUCCCCCAGGGAAAGCCCUGGUUAUGUCAACAGCUCGCAGUCAAG”, the binding signal (log2 fold change) was -0.0247. For “GGUCACGUCUCAAUCAACUCUCAAGAGGGGGGGAAAACCCCUUUACCCUCGAAAUCAACAGCUCGCAGUCAAG”, the binding signal (log2 fold change) was determined as 0.0214. Then “GGUCACGUCUCAAUCAACUCACAGGAGGGGGGGAAAACCCCUUUACCCUCACAAUCAACAGCUCGCAGUCAAG”, with -0.388; and “GGUCACGUCUCAAUCAACUCCUUCGAGGGGGGGAAAACCCCUUUACCCUCUUAAUCAACAGCUCGCAGUCAAG”, with 0.305; and “GGUCACGUCUCAAUCAACUCCCCAGAGGGGGGGAAAACCCCUUUGCCCUCAUUCUCAACAGCUCGCAGUCAAG”, with -0.244.

“GGUCACGUCUCAAUCAACUCUAUCUCAGGAGUUUACUCCUGCUUACUCAACAGCUCGCAGUCAAG”: the binding signal (log2 fold change) was -0.00203.

As to “GGUCACGUCUCAAUCAACUCUACUUCAGGAGUUUACUCCUGCAAACUCAACAGCUCGCAGUCAAG”, the binding signal (log2 fold change) was -0.0527. For the sequence “GGUCACGUCUCAAUCAACUCACACGAGGGGGGGAAAACCCCUUUACCCUCAAACUCAACAGCUCGCAGUCAAG”, the binding signal (log2 fold change) amounted to 0.265. Then “GGUCACGUCUCAAUCAACUCAUCUUCCAGGGAAAUCCCUGGCUAACUCAACAGCUCGCAGUCAAG”, with -0.0405; and “GGUCACGUCUCAAUCAACUCUUCCCCCAGGGAAAGCCCUGGCUAUUUCAACAGCUCGCAGUCAAG”, with -0.00689; and “GGUCACGUCUCAAUCAACUCUUCCCCCAGGGAAACCCCUGGCAUUCUCAACAGCUCGCAGUCAAG”, with -0.124. The value for “GGUCACGUCUCAAUCAACUCCAAAGAGGGGGGGAAAACCCCUUUACCCUCAGAAUCAACAGCUCGCAGUCAAG” was -0.658; that for “GGUCACGUCUCAAUCAACUCACAAGAGGGGGGGAAAACCCCUUUACCCUCCGUUUCAACAGCUCGCAGUCAAG” was -0.367; that for “GGUCACGUCUCAAUCAACUCUUCCCCCAGGGAAAGCCCUGGCUAAUUCAACAGCUCGCAGUCAAG” was 0.168. Turning to “GGUCACGUCUCAAUCAACUCAUUCGAGGGGGGGAAAACCCCUUUACCCUCACUAUCAACAGCUCGCAGUCAAG”, the binding signal (log2 fold change) is -0.285. The value for “GGUCACGUCUCAAUCAACUCAUAAGAGGGGGGGAAAACCCCUUUACCCUCCGUAUCAACAGCUCGCAGUCAAG” was -0.537.

In the case of “GGUCACGUCUCAAUCAACUCAUUUCCCAGGGAAAACCCUGGCAUUUUCAACAGCUCGCAGUCAAG”, the binding signal (log2 fold change) stood at 0.0753. Then “GGUCACGUCUCAAUCAACUCAUCCCCCAGGGAAAACCCUGGUAAACUCAACAGCUCGCAGUCAAG”, with 0.0142; and “GGUCACGUCUCAAUCAACUCAUGUCCAGGAGUUUACUCCUGUUAUUUCAACAGCUCGCAGUCAAG”, with 0.00321. Then “GGUCACGUCUCAAUCAACUCAGUUCCCAGGGAAAACCCUGGCAUAUUCAACAGCUCGCAGUCAAG”, with 0.138; and “GGUCACGUCUCAAUCAACUCCCCAGAGGGGGGGAAAACCCCUUUGCCCUCAACAUCAACAGCUCGCAGUCAAG”, with -0.109. For the sequence “GGUCACGUCUCAAUCAACUCUUCUUCAGGAGUUUUCUCCUGUUUAUUCAACAGCUCGCAGUCAAG”, the binding signal (log2 fold change) was found to be 0.0534. The value for “GGUCACGUCUCAAUCAACUCAUUCUCCAGGGAAAACCCUGGUUUUUUCAACAGCUCGCAGUCAAG” was -0.133. In the case of “GGUCACGUCUCAAUCAACUCUAGUCCAGGAGUUUUCUCCUGCAAUCUCAACAGCUCGCAGUCAAG”, the binding signal (log2 fold change) is 0.0042.

For the sequence “GGUCACGUCUCAAUCAACUCUAGUCCCAGGGAAACCCCUGGUAAAUUCAACAGCUCGCAGUCAAG”, the binding signal (log2 fold change) worked out at 0.097. The value for “GGUCACGUCUCAAUCAACUCUCACGAGGGGGGGAAAACCCCUUUACCCUCCAUUUCAACAGCUCGCAGUCAAG” was -0.507.

Consider “GGUCACGUCUCAAUCAACUCAUAAGAGGGGGGGAAAACCCCUUUGCCCUCGUCAUCAACAGCUCGCAGUCAAG”, for which the binding signal (log2 fold change) was 0.0907. In the case of “GGUCACGUCUCAAUCAACUCAAUCCCAGGAGUUUACUCCUGUAUAUUCAACAGCUCGCAGUCAAG”, the binding signal (log2 fold change) stood at 0.175. The value for “GGUCACGUCUCAAUCAACUCAAUAGAGGGGGGGAAAACCCCUUUACCCUCCUUAUCAACAGCUCGCAGUCAAG” was 0.0891; that for “GGUCACGUCUCAAUCAACUCUAUUCCCAGGGAAAGCCCUGGCUAUCUCAACAGCUCGCAGUCAAG” was 0.342.

Turning to “GGUCACGUCUCAAUCAACUCUCUCGAGGGGGGGAAAACCCCUUUACCCUCAUCAUCAACAGCUCGCAGUCAAG”, the binding signal (log2 fold change) is -0.152. Then “GGUCACGUCUCAAUCAACUCUUUUCCCAGGGAAAGCCCUGGUAAUUUCAACAGCUCGCAGUCAAG”, with -0.125; and “GGUCACGUCUCAAUCAACUCCAUAGAGGGGGGGAAAACCCCUUUGCCCUCGAAAUCAACAGCUCGCAGUCAAG”, with 0.382. Then “GGUCACGUCUCAAUCAACUCUUCUCCCAGGGAAAUCCCUGGUAAUUUCAACAGCUCGCAGUCAAG”, with 0.0285.

On to “GGUCACGUCUCAAUCAACUCUACUUCAGGAGUUUCCUCCUGCAAUCUCAACAGCUCGCAGUCAAG”, for which the binding signal (log2 fold change) came to 0.105. Regarding “GGUCACGUCUCAAUCAACUCUAUUCCCAGGGAAAUCCCUGGCAUAUUCAACAGCUCGCAGUCAAG”, the binding signal (log2 fold change) is -0.00406.

In the case of “GGUCACGUCUCAAUCAACUCAGUCUCCAGGGAAAGCCCUGGUAUUUUCAACAGCUCGCAGUCAAG”, the binding signal (log2 fold change) stood at 0.124. Then “GGUCACGUCUCAAUCAACUCACUAGAGGGGGGGAAAACCCCUUUACCCUCGUCUUCAACAGCUCGCAGUCAAG”, with 0.00579; and “GGUCACGUCUCAAUCAACUCAACUUCAGGAGUUUUCUCCUGUAUUUUCAACAGCUCGCAGUCAAG”, with 0.0688; and “GGUCACGUCUCAAUCAACUCUUUUUCCAGGGAAACCCCUGGCAUGUUCAACAGCUCGCAGUCAAG”, with 0.104. The value for “GGUCACGUCUCAAUCAACUCAAUUUCAGGAGUUUGCUCCUGCAUAGUCAACAGCUCGCAGUCAAG” was 0.0858. The value for “GGUCACGUCUCAAUCAACUCAUCCCCAGGAGUUUACUCCUGUUAACUCAACAGCUCGCAGUCAAG” was 0.107; that for “GGUCACGUCUCAAUCAACUCAAUCUCAGGAGUUUUCUCCUGCAAUCUCAACAGCUCGCAGUCAAG” was -0.126; that for “GGUCACGUCUCAAUCAACUCUACUCCAGGAGUUUUCUCCUGCUAUGUCAACAGCUCGCAGUCAAG” was -0.0567. On to “GGUCACGUCUCAAUCAACUCUUAAGAGGGGGGGAAAACCCCUUUGCCCUCAUCCUCAACAGCUCGCAGUCAAG”, for which the binding signal (log2 fold change) was found to be 0.168. The value for “GGUCACGUCUCAAUCAACUCAUCGCCAGGAGUUUACUCCUGCUAUCUCAACAGCUCGCAGUCAAG” was -0.195. For the sequence “GGUCACGUCUCAAUCAACUCUUUCUCAGGAGUUUCCUCCUGCAAUCUCAACAGCUCGCAGUCAAG”, the binding signal (log2 fold change) was -0.0158. Consider “GGUCACGUCUCAAUCAACUCUUUCCCCAGGGAAAUCCCUGGUAUUUUCAACAGCUCGCAGUCAAG”, for which the binding signal (log2 fold change) is 0.032. Then “GGUCACGUCUCAAUCAACUCUAUUUCAGGAGUUUGCUCCUGCAUUUUCAACAGCUCGCAGUCAAG”, with 0.0103. For the sequence “GGUCACGUCUCAAUCAACUCAUCGUCCAGGGAAAGCCCUGGUUUUCUCAACAGCUCGCAGUCAAG”, the binding signal (log2 fold change) was -0.0969. As for “GGUCACGUCUCAAUCAACUCUUCUCCAGGAGUUUUCUCCUGUAUACUCAACAGCUCGCAGUCAAG”, the binding signal (log2 fold change) came to 0.06. As for “GGUCACGUCUCAAUCAACUCUUUCCCCAGGGAAAACCCUGGCUAUCUCAACAGCUCGCAGUCAAG”, the binding signal (log2 fold change) was -0.0586. Then “GGUCACGUCUCAAUCAACUCUACUCCCAGGGAAAACCCUGGCAUUUUCAACAGCUCGCAGUCAAG”, with 0.0796; and “GGUCACGUCUCAAUCAACUCAUCUCCCAGGGAAAGCCCUGGCUAACUCAACAGCUCGCAGUCAAG”, with 0.0208; and “GGUCACGUCUCAAUCAACUCUUCUUCAGGAGUUUUCUCCUGUUUUUUCAACAGCUCGCAGUCAAG”, with -0.157. Then “GGUCACGUCUCAAUCAACUCAUCCCCCAGGGAAAUCCCUGGCAUUUUCAACAGCUCGCAGUCAAG”, with 0.134; and “GGUCACGUCUCAAUCAACUCAAACGAGGGGGGGAAAACCCCUUUACCCUCAAUCUCAACAGCUCGCAGUCAAG”, with -0.0324. The value for “GGUCACGUCUCAAUCAACUCUAUUCCCAGGGAAACCCCUGGUUAUUUCAACAGCUCGCAGUCAAG” was 0.0642. As to “GGUCACGUCUCAAUCAACUCUACGCCAGGAGUUUUCUCCUGCUAAUUCAACAGCUCGCAGUCAAG”, the binding signal (log2 fold change) is -0.201. As for “GGUCACGUCUCAAUCAACUCUUUCCCAGGAGUUUACUCCUGUUUAUUCAACAGCUCGCAGUCAAG”, the binding signal (log2 fold change) is 0.127. The value for “GGUCACGUCUCAAUCAACUCGUUUUCAGGAGUUUACUCCUGCAAUUUCAACAGCUCGCAGUCAAG” was 0.0543; that for “GGUCACGUCUCAAUCAACUCACAAGAGGGGGGGAAAACCCCUUUACCCUCAAAAUCAACAGCUCGCAGUCAAG” was 0.222.

On to “GGUCACGUCUCAAUCAACUCAACUCCCAGGGAAAACCCUGGCUAUUUCAACAGCUCGCAGUCAAG”, for which the binding signal (log2 fold change) is -0.311. The value for “GGUCACGUCUCAAUCAACUCUUCCCCCAGGGAAAUCCCUGGUAAUUUCAACAGCUCGCAGUCAAG” was -0.0808; that for “GGUCACGUCUCAAUCAACUCUUCUUCAGGAGUUUCCUCCUGUUAUUUCAACAGCUCGCAGUCAAG” was 0.0618. Take “GGUCACGUCUCAAUCAACUCUUCGCCAGGAGUUUACUCCUGUAUUUUCAACAGCUCGCAGUCAAG”: the binding signal (log2 fold change) was -0.187. The value for “GGUCACGUCUCAAUCAACUCUUCGCCAGGAGUUUUCUCCUGUUAAUUCAACAGCUCGCAGUCAAG” was -0.0225; that for “GGUCACGUCUCAAUCAACUCCACAGAGGGGGGGAAAACCCCUUUGCCCUCCAAAUCAACAGCUCGCAGUCAAG” was -0.173; that for “GGUCACGUCUCAAUCAACUCUUUCUCCAGGGAAAUCCCUGGUAAUUUCAACAGCUCGCAGUCAAG” was -0.1.

“GGUCACGUCUCAAUCAACUCCUCAGAGGGGGGGAAAACCCCUUUACCCUCAAUAUCAACAGCUCGCAGUCAAG”: the binding signal (log2 fold change) is 0.394.

Turning to “GGUCACGUCUCAAUCAACUCAAUCGAGGGGGGGAAAACCCCUUUACCCUCAAUCUCAACAGCUCGCAGUCAAG”, the binding signal (log2 fold change) was -0.343. Turning to “GGUCACGUCUCAAUCAACUCAUCGUCCAGGGAAAACCCUGGUAAUUUCAACAGCUCGCAGUCAAG”, the binding signal (log2 fold change) was 0.159.

(Values after publication PMC5892938.)
